{"source": "ChEMBL document CHEMBL4888484", "about": "“Replenishing the malaria drug discovery pipeline: Screening and hit evaluation of the MMV Hit Generation Library 1 (HGL1) against asexual blood stage Plasmodium falciparum ,using a nano luciferase reporter read-out” (2022)", "note": "The campaign covered roughly 150,000 compounds. About 540 (0.36%) showed an effect of 50% or more. The list shows a part of the results."}
{"system": "Plasmodium falciparum", "experiment": "Primary screen in NF54 nanoGlo assay, in single point, at 2uM, 72h; a lower Z score goes with more inhibition", "assay_type": "functional, Erythrocyte", "settings": "timepoint 72 hour", "units": {"% Inhibition": "%"}}
{"smiles": "CNC(=O)CCCN(C)c1ccnc2cc(Br)cnc12", "% Inhibition": -9, "Z score": 1.06}
{"smiles": "O=S(=O)(Cc1ccccc1)NCCc1cccc2[nH]ccc12", "% Inhibition": -3, "Z score": 0.4}
{"smiles": "CC1CN(c2ccnc(C(=O)NCC(=O)NC3CCCCC3)c2)CC(C)O1", "note": "(configuration not stated)", "% Inhibition": -12, "Z score": 1.11}
{"smiles": "O=C(Nc1ccc2c(c1)CCC2)[C@@H]1CCCCN1C1=NS(=O)(=O)c2ccccc21", "% Inhibition": 3, "Z score": -0.57}
{"smiles": "O=C(COc1ccccc1)NCc1cccnc1-n1ccnc1", "% Inhibition": 1, "Z score": -0.19}
{"smiles": "CC(NCC1CCC(C(=O)N(C)C)O1)C(C)(C)C(F)F", "note": "(configuration not stated)", "% Inhibition": -1, "Z score": 0.12}
{"smiles": "CCCC(=O)Nc1cccc(Br)c1", "% Inhibition": -6, "Z score": 1.09}
{"smiles": "CC(C)CN1CC(=O)N(C2CCN(c3ccc(N(C)C)cc3)CC2)C1=O", "% Inhibition": 31, "Z score": -3.47}
{"smiles": "Nc1cc(Br)cc(Br)c1N", "% Inhibition": -10, "Z score": 1.48}
{"smiles": "Cn1nc2c(c1C(=O)NCCc1csc(N)n1)CCCC2", "% Inhibition": -6, "Z score": 1.21}
{"smiles": "CC(C)Oc1cccc(-c2ccc(-c3nnco3)cc2)c1", "% Inhibition": -8, "Z score": 1.04}
{"smiles": "CCN(CC)Cc1cnc2c(C(=O)N(C)Cc3nc(C)c[nH]3)cnn2c1", "% Inhibition": -10, "Z score": 0.97}
{"smiles": "CC[C@H](NC(=O)CCCN1CCOCC1)c1nccs1", "% Inhibition": -18, "Z score": 1.82}
{"smiles": "COc1cccc(N2CCN(C(=O)c3ccc(C)nc3C3CCN(Cc4ccccc4OC)CC3)CC2)c1", "% Inhibition": -4, "Z score": 0.85}
{"smiles": "CCN(CC)C[C@H](C)NC(=O)Nc1cc(C)on1", "% Inhibition": -16, "Z score": 1.59}
{"smiles": "CCOc1ccc(C2=NC3(CCN(C(C)C)CC3)N[C@H](c3cccc(OC)c3O)C2)cc1", "% Inhibition": -11, "Z score": 1.26}
{"smiles": "Cc1cc(C(=O)N[C@@H](C)c2ccc(OC(F)(F)F)cc2)co1", "% Inhibition": -13, "Z score": 1.27}
{"smiles": "O=S(=O)(c1cccc(F)c1F)N1CCN(Cc2nccn2C(F)F)CC1", "% Inhibition": -4, "Z score": 0.57}
{"smiles": "CON(C)C(=O)c1coc(NC(=O)c2cnccn2)n1", "% Inhibition": -8, "Z score": 1.06}
{"smiles": "FC(F)(F)c1cncc(CN2CC[C@H](Nc3ncccn3)C2)c1", "% Inhibition": -1, "Z score": 0.19}
{"smiles": "CCN1[C@H](C)CN(C(=O)OCCF)C[C@@H]1C", "% Inhibition": -7, "Z score": 0.89}
{"smiles": "O=C(c1cccc2cc[nH]c12)N1C[C@@H]2[C@H](C1)[C@H]1CC[C@@H]2O1", "% Inhibition": 18, "Z score": -1.92}
{"smiles": "C#CCN1CCN(C(=O)NCc2cnc(CC(C)C)s2)CC1", "% Inhibition": 5, "Z score": -0.95}
{"smiles": "CNC(=N[C@@H](CC1CCOCC1)c1ccccc1)NCc1ccco1", "% Inhibition": 1, "Z score": -0.14}
{"smiles": "C[C@@]1(C(=O)NCc2ccccc2)Cn2cnc(C(=O)NCCc3ccco3)c2C(=O)N1C1CC1", "% Inhibition": -4, "Z score": 0.81}
{"smiles": "COC[C@H]1CCCN(S(=O)(=O)NCCc2ccncc2)C1", "% Inhibition": -17, "Z score": 1.6}
{"smiles": "CC(=O)N1CCc2ccc(OCC(=O)NCc3ccccc3)cc2[C@@H]1c1ccccc1", "% Inhibition": -8, "Z score": 0.82}
{"smiles": "CC[C@H](C)[C@@H](CN(C)C)NC(=O)CCc1ccncc1", "% Inhibition": 20, "Z score": -2.58}
{"smiles": "CCCCNC(=O)N1CCN(C2CCOCC2OC)CC1", "note": "(configuration not stated)", "% Inhibition": -14, "Z score": 1.78}
{"smiles": "Nc1cc(C(F)(F)F)ccc1OCC(F)(F)F", "% Inhibition": -7, "Z score": 0.85}
{"smiles": "C[C@H]1CCN(Cc2cccc(-c3cccnc3)c2)CCS1(=O)=O", "% Inhibition": 3, "Z score": -0.48}
{"smiles": "CCOc1ccc(Cc2nc(CN3C(=O)COc4ccccc43)no2)cc1OCC", "% Inhibition": 3, "Z score": -0.35}
{"smiles": "Cn1nc(C(F)(F)F)cc1[C@@H]1CCCCCN1C(=O)c1ccc(F)cc1", "% Inhibition": -2, "Z score": 0.3}
{"smiles": "O=C(NCc1cc(O)ncn1)c1cc(COc2ccc(F)cc2F)[nH]n1", "% Inhibition": -3, "Z score": 0.36}
{"smiles": "CCS(=O)(=O)N1CCC([C@H](C)N(C)c2nccs2)CC1", "% Inhibition": -1, "Z score": 0.13}
{"smiles": "Cn1cncc1CN1CCC(CNC(=O)C2CCC2)CC1", "% Inhibition": -11, "Z score": 1.61}
{"smiles": "COC[C@@H]1C[C@@H](OC)CN1c1ccnc2ncccc12", "% Inhibition": 9, "Z score": -1.43}
{"smiles": "CC1(C)[C@H](Cc2cc(CCO)on2)C[C@@H]1NCc1ccco1", "% Inhibition": -9, "Z score": 1.12}
{"smiles": "COCCCN=C(NCc1ccccc1OCCOC)NC1CC1", "% Inhibition": -16, "Z score": 1.63}
{"smiles": "COc1ccc(CC(=O)N2CC3(C[C@H](N4CCN(C)CC4)CO3)C2)cc1", "% Inhibition": -7, "Z score": 1.04}
{"smiles": "CN(CC1CC1)c1ccc(S(=O)(=O)N(C)C)cc1S(N)(=O)=O", "% Inhibition": -16, "Z score": 1.65}
{"smiles": "CCn1ncc(Cl)c1C(=O)NC1(c2ccccc2F)COC1", "% Inhibition": 2, "Z score": -0.26}
{"smiles": "CC1(C)CCC[C@@H]1NC(=O)NCc1cccc(-c2nnc[nH]2)c1", "% Inhibition": -1, "Z score": 0.09}
{"smiles": "COc1ccc(Cn2c(CN3CCN(C)CC3)n[nH]c2=O)cc1", "% Inhibition": -14, "Z score": 1.43}
{"smiles": "COCC1(CNC(=O)Cc2c(C)nc3ccccn23)CCCC1", "% Inhibition": -13, "Z score": 2.12}
{"smiles": "CC(C)(C)c1nc(COc2ccc3c(c2)OCO3)cs1", "% Inhibition": -5, "Z score": 0.82}
{"smiles": "CC(=O)Nc1cnc(N2CCCCCC2)nc1", "% Inhibition": -20, "Z score": 1.79}
{"smiles": "Cc1cnc(C2CC2)n1CCC1CCN(C(=O)c2ccc3[nH]ccc3c2)CC1", "% Inhibition": -1, "Z score": 0.15}
{"smiles": "CC(C)n1nnnc1CN1CCC[C@H]1C=Cc1ccccc1", "% Inhibition": -11, "Z score": 2.07}
{"smiles": "c1ccc(Cn2c(COc3ccc4ccccc4c3)nc3ccccc32)cc1", "% Inhibition": 0, "Z score": 0.03}
{"smiles": "Cc1ncsc1CCC(=O)N1CCC(c2cccc(O)c2)CC1", "% Inhibition": -2, "Z score": 0.42}
{"smiles": "Cc1ccccc1OCC(=O)N(Cc1cccs1)C1CCOCC1", "% Inhibition": 0, "Z score": 0.04}
{"smiles": "CN(C)c1ncc(CN[C@H](c2cccc(Cl)c2)C(F)F)cn1", "% Inhibition": 5, "Z score": -0.78}
{"smiles": "CCc1nnc(CN(C)C(=O)c2ccc(-c3c(C)[nH]c(=O)[nH]c3=O)cc2)o1", "% Inhibition": -11, "Z score": 1.13}
{"smiles": "C[C@H]1CCCCN1C1CN(C(=O)c2c3c(nn2C)CCCC3)C1", "% Inhibition": -13, "Z score": 1.38}
{"smiles": "Cc1cccc(N2CCN(C(=O)NC3CC3)CC2)c1C", "% Inhibition": 1, "Z score": -0.2}
